Sequences with one replicate were seen in a single cluster, so their values are uncertain.
System: ATP
Experiment: switch fluorescence ratio, 500 uM ATP over buffer (Cy3 cluster intensity, sum of 5 cycles each) (fold (ratio)); higher = stronger signal-on switching upon ATP binding; sequences stand for … in TCGTCGGCAGCGTCAGATGTGTATAAGAGACAGTTTTTTTTTTTTTTTTTTTTTTTTT…TC
Details: aptamer strand: ATP DNA aptamer (quencher-CACCTGGGGGAGTATTGCGGAGGAAGG + anchor), 100 nM annealed; ATP concentration: 500 uM; one replicate
Procedure, shortened: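 Clusters carrying Cy3-labelled switching strands on a modified Illumina MiSeq flow-cell were annealed to 100 nM quencher-labelled ATP aptamer and imaged in selection buffer. They were imaged again after 15 min with 500 uM ATP at 22 °C, over five buffer/ATP cycles with NaOH stripping and re-annealing in between. For each cluster, the fluorescence ratio is the summed Cy3 intensity of the target cycles divided by that of the buffer cycles, averaged per switch-domain sequence. Clusters outside 100-1000 RFU were left out.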
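Also: ATP exposure 15 min at 22 °C before imaging.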

| Sequence | switch fluorescence ratio |
| --- | --- |
| AATGCCATTC | 1.01 |
| GACGACATTG | 1.02 |
| TGAAAGACAC | 1.11 |
| AACGAATTGA | 1.01 |
| ATGTGATATT | 0.992 |
| CGAATTGATG | 0.964 |
| GCTAGAACAA | 1.02 |
| GTCATTTGGG | 0.969 |
| CCCAAAGGGA | 0.979 |
| CACTGCTGCG | 1.04 |
| GGATTCTAGA | 0.987 |
| GTGGGCGTCA | 0.982 |
| GTGCCCTGCA | 0.996 |
| CAGGCTATGA | 1.03 |
| ATGTCACGCA | 1.07 |
| GCGCGGGGG | 1 |
| ATACTATTTC | 1.03 |
| TTTTCCATCT | 1.02 |
| TCATACTGTT | 0.979 |
| CAGAACATGG | 0.944 |
| GGCTTTGTAA | 1 |
| TCCCCGTGC | 1.28 |
| ATTTTGAACT | 0.945 |
| CATGATTTGT | 1 |
| ATTAGAAATT | 1.02 |
| ATGAGAACCT | 1.87 |

| Sequence | switch fluorescence ratio |
| --- | --- |
| GATAAGTTCG | 0.994 |
| TTGTAGGCGT | 0.968 |
| GGGATCATAT | 1.04 |
| GTGGATGCCT | 0.95 |
| TACGGGCGCA | 1.01 |
| CGAAACTGAG | 1.05 |
| TGGTTCCAAG | 1.84 |
| TGGGTTCTTT | 0.998 |
| GATTTCCTT | 1.03 |
| TATTTCTAG | 1.01 |
| TTATACCCTG | 1.07 |
| TTGCGACCAG | 1.03 |
| TGCACGTAAG | 1.05 |
| ACGTTGACTG | 1 |
| AATTTAATGT | 1.02 |
| AGGTAGTACT | 1.05 |
| TGTAAAATTA | 1.02 |
| TCGCGCTAAT | 1.19 |
| TGTTACATCA | 1.03 |
| ACTCTTTCGC | 1.05 |
| AGAAGCAGAG | 1.05 |
| CATTTGGCAG | 0.994 |
| ATCGTCTTCC | 1.12 |
| ACCGATTTCA | 1.01 |
| TTTCACTGCT | 0.976 |
| CTTTTAATTC | 0.998 |

| Sequence | switch fluorescence ratio |
| --- | --- |
| CGGTTGTAAC | 1 |
| CTGCTACTTG | 1.03 |
| TTGCCAGGTC | 1.01 |
| CGATAAAAGG | 0.971 |
| TGGCAAGTTT | 1.06 |
| GGAATTAGTC | 1 |
| AGAGCAGCTA | 1.01 |
| CGGTTGTGTG | 1.01 |
| AAAAACTCAT | 0.99 |
| CCCATTGTTG | 1.01 |
| TTTTAAGTAA | 1.23 |
| CCCGAGGTCA | 1 |
| AGAGTTACTG | 0.953 |
| CGCGAGCGAC | 1 |
| TTGGGGAG | 0.989 |
| GAGTCTGATC | 1.02 |
| CTTCAGCGCT | 1.03 |
| AGTGTGTGTA | 1.01 |
| GCGATGATCG | 0.979 |
| GCGGCCCAG | 1.01 |
| GTTATTAGGC | 1.03 |
| GCAGTCAGTT | 1.03 |
| ATCTTGTAGC | 0.992 |
| AAATATTCGC | 1.02 |

— the supplement of paper PMC10126150
